Results are given in words; binding and its absence hold for the method and conditions named. In cells and extracts the contact can be indirect. Some binding calls cover weakened binding; strength is not graded here. For part of these data: Sequences can lack the tags named with a protein.
Legend:
[1] = molecular target: T1, GFP-FLAG-fused full-length (FL) USP4 (human) (UniProt Q13107); assay: co-IP; anti-GFP immunoprecipitation of GFP-FLAG-fused USP4 (full length from U2OS lysates; deletion mutants, cell line not stated), western blot for CtIP, RAD50 and MRE11; full length also after DNA damage induction
T1 sequence: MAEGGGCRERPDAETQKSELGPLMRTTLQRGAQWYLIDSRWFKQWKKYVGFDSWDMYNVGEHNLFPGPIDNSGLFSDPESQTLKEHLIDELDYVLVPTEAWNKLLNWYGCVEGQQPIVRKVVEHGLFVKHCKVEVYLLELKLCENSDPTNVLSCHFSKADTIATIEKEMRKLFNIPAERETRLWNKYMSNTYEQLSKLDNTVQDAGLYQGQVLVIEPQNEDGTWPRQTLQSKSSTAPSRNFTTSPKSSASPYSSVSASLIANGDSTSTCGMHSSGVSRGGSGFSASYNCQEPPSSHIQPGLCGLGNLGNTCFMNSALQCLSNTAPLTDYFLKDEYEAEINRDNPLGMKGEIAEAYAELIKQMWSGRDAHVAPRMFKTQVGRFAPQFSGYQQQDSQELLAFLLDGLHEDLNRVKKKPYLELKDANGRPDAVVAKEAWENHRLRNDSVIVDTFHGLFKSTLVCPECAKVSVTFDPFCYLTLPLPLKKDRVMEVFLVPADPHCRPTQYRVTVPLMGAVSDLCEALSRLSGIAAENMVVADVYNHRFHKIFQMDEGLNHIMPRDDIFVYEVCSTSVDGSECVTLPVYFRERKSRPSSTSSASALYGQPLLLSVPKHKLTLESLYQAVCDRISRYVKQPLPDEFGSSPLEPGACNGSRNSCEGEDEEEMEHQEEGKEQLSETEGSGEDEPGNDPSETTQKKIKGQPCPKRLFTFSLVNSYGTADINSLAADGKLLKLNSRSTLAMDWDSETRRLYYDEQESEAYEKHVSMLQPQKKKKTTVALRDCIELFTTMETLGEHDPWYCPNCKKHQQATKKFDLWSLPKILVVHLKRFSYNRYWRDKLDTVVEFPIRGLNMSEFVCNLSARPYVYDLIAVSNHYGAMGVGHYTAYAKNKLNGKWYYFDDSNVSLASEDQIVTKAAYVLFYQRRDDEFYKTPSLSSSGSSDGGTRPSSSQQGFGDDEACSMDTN

Protein sequences, listed by entry. Tags and fused reporters are not part of them.
UniProt Q92878: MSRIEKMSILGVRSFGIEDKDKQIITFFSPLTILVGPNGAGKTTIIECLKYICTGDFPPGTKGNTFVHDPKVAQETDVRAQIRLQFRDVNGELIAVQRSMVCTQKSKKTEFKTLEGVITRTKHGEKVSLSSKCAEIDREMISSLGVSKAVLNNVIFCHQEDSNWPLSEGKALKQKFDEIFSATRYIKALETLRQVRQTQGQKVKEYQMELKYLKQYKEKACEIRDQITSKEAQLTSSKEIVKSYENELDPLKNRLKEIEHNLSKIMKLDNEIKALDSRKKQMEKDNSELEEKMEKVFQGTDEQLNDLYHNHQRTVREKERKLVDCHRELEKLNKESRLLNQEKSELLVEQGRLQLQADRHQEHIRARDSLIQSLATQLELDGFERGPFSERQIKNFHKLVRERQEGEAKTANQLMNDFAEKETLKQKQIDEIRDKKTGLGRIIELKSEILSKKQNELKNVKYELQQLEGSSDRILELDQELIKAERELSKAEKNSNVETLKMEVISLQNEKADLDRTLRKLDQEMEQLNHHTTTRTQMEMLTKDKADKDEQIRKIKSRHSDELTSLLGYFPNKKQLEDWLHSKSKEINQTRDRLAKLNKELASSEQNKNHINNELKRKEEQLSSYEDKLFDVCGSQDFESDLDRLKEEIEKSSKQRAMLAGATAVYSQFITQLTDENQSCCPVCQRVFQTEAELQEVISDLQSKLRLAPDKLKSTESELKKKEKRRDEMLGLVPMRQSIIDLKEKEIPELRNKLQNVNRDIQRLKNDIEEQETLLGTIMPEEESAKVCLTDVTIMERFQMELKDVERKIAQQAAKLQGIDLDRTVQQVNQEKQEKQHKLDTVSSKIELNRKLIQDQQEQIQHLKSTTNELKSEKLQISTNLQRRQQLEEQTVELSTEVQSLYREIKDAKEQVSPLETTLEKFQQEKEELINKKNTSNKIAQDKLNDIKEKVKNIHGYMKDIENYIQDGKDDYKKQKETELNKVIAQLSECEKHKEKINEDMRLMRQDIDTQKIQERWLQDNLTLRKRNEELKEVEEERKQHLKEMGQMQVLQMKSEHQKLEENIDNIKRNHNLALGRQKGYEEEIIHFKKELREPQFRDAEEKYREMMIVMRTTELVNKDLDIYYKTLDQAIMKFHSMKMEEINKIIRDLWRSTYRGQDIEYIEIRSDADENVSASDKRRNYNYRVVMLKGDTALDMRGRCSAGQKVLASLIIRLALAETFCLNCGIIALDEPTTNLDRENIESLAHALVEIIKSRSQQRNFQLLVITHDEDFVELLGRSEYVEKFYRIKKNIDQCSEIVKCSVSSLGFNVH

USP4 UBL2 domain (human) = molecular target: T2, USP4 UBL2 domain (human) (UniProt Q13107); assay: as above
T2 sequence: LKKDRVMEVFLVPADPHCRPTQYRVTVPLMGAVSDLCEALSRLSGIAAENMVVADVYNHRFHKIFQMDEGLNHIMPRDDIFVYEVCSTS

[2] = molecular target: T3, GFP-USP4 CD-C464A (human) (UniProt Q13107); assay: co-IP; GFP immunoprecipitation of GFP-USP4 WT, CD, WT-C464A or CD-C464A from cell extracts (U2OS in Figure 5A), with or without ethidium bromide 50 ug/ml, western blot for CtIP, RAD50, MRE11
T3 sequence: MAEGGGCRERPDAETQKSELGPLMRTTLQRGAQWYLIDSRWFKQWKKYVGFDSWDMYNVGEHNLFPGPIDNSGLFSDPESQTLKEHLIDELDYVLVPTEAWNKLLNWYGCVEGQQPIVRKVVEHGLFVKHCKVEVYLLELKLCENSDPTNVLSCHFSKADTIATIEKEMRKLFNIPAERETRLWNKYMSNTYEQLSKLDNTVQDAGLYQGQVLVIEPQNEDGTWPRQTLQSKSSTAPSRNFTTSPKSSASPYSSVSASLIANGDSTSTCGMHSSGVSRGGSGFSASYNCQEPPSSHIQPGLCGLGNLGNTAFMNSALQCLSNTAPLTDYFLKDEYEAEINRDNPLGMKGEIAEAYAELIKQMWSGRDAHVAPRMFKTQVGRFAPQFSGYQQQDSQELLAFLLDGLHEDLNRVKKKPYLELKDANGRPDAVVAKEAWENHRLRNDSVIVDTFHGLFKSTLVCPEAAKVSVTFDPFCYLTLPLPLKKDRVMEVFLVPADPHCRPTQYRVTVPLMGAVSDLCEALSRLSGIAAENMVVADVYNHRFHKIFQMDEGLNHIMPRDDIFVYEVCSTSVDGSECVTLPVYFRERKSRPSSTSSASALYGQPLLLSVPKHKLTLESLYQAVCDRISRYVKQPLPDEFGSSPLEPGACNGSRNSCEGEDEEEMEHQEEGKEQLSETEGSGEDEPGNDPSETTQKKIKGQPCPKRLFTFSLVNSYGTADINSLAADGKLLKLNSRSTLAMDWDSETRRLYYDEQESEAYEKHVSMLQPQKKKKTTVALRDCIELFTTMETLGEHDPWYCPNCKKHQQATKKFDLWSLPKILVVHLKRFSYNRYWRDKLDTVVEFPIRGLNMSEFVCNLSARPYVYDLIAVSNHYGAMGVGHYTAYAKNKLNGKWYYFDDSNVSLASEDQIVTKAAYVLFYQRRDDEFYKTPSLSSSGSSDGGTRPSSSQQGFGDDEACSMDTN

[3] = molecular target: T4, GFP fused to wild-type USP4 (GFP-USP4 WT) (human) (UniProt Q13107); assay: as above
T4 sequence: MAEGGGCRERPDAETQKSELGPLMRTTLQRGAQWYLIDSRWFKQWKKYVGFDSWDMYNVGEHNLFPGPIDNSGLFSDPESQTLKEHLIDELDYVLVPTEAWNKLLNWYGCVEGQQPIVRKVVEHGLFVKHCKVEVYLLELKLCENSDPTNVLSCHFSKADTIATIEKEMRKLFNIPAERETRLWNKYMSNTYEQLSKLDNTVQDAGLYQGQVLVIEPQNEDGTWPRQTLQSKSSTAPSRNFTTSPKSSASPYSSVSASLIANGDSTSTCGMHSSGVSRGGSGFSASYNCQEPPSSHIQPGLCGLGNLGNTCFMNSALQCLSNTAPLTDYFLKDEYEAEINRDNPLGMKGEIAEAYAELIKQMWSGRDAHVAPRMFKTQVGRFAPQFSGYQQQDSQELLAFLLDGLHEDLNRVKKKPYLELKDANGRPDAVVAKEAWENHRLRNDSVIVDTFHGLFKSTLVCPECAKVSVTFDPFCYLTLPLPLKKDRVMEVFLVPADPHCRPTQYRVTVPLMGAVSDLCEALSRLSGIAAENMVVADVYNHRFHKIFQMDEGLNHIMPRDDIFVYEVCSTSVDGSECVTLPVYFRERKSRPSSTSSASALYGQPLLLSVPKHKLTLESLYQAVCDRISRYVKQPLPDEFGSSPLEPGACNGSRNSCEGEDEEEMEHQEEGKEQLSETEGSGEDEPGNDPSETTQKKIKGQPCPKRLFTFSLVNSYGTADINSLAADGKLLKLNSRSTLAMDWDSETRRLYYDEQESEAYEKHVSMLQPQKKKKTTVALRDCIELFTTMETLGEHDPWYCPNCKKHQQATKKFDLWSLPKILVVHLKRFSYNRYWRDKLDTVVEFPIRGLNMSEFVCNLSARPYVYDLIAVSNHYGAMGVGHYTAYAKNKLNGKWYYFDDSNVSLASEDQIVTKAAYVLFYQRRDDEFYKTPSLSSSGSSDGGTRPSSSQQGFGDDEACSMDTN

[4] = molecular target: T5, GFP-USP4 WT-C464A (human) (UniProt Q13107); assay: as above
T5 sequence: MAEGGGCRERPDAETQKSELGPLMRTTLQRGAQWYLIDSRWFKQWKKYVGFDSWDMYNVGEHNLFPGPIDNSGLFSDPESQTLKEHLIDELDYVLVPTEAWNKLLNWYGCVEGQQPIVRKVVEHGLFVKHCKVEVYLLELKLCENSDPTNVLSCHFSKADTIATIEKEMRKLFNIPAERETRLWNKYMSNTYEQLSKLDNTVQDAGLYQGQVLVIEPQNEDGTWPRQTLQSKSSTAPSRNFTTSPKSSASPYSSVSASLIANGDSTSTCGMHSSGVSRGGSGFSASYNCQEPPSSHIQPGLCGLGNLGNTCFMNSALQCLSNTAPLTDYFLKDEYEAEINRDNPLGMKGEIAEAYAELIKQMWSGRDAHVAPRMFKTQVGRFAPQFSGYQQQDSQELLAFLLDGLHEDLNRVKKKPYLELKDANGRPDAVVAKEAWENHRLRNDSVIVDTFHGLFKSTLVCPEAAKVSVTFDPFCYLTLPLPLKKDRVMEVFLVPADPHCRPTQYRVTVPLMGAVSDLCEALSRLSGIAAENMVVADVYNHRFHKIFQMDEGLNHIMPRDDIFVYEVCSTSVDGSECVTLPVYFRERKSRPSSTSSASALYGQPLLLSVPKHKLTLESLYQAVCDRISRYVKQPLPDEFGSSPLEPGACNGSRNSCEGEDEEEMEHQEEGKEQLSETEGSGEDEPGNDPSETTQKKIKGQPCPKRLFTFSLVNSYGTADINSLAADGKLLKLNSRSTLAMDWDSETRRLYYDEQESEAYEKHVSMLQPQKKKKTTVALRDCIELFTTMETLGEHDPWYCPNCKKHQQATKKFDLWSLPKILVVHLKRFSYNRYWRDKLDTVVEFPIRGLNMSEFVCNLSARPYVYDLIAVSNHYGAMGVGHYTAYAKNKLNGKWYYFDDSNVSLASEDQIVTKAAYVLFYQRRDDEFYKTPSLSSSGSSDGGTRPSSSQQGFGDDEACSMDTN

[5] = molecular target: T6, endogenous USP4 (human (endogenous in 293FT)) (UniProt Q13107); assay: co-IP; immunoprecipitation of endogenous USP4 with an anti-USP4 antibody from 293FT cell extracts, western blot
T6 sequence: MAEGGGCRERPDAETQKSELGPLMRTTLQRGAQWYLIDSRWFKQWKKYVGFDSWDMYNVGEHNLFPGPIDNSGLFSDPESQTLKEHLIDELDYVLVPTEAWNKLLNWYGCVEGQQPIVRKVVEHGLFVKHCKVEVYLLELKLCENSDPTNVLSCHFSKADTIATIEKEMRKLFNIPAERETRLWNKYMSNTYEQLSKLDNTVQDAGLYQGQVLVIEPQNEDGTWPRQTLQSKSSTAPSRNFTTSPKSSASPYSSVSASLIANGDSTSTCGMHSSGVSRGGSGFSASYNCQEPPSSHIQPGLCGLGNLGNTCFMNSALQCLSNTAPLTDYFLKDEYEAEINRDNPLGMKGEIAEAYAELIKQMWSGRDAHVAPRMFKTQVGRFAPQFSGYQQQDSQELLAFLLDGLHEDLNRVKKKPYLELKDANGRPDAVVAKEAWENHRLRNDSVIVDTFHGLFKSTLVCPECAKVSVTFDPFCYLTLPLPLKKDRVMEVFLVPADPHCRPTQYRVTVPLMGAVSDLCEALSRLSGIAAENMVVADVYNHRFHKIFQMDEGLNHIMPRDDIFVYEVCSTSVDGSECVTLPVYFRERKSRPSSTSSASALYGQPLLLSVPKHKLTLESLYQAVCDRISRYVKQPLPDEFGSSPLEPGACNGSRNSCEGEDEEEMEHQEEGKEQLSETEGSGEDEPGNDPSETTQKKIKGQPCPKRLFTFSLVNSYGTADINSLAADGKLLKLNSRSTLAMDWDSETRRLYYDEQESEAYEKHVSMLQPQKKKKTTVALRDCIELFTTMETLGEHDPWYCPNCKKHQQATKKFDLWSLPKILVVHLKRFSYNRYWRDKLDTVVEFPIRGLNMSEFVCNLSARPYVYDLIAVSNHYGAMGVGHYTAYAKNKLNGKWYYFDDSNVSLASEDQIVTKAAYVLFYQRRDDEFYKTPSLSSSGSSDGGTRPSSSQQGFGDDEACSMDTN

- binding [2]: binds
- binding [3]: binds
- binding [4]: binds
- binding [5]: binds
Substance: RAD50 (from UniProt Q92878 1-1312)
- binding [1]: binds
- binding (USP4 UBL2 domain (human)): no binding

Reference: paper PMC4643306
